From PubChem BioAssay AID1478 (National Center for Advancing Translational Sciences (NCATS), 2009)
Several values for one entry are separate records, joined by “and”; a condition that tells them apart may be missing. Equal entries are not always repeated. The whole screen tested about 200,000 compounds, of which about 860 (0.43%) were called active. The inconclusive results got no clear call from the source; some entries with a clear call stand among them for comparison. Calls follow the shape of the dose curve; as a rule, active = well fitted inhibition curve with a large enough effect; inconclusive = small, poorly fitted or top-dose-only effect; inactive = flat fitted curve, though single readings scatter. A potency beside an inconclusive call is a rough fit, not a confirmed value. The source holds several records for some structures; these can differ, active in one and inactive in another.

Target: Cruzipain (Trypanosoma cruzi) (UniProt P25779)
Assay: qHTS Assay for Promiscuous and Specific Inhibitors of Cruzain (with detergent); also: nearly all actives have a fitted effect of over 40% in size;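 as to max response, negative = inhibition: plate controls were neutral wells for no effect and buffer without enzyme for full effect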
Details: purified cruzain, Z-FR-AMC fluorescence, 0.01% Triton
Outline: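 Enzyme 1.5 nM, Z-FR-AMC 2 uM, NaOAc 100 mM pH 5.5, DTT 5 mM, Triton X-100 0.01%; 15 min RT compound preincubation; kinetic ex360/em450, 60 s delta.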
Potency is read from the fitted curve at half-maximal effect; tags tell the direction and shape of the fitted curve.

UniProt P25779, sequence (P25779 whole entry, looked up): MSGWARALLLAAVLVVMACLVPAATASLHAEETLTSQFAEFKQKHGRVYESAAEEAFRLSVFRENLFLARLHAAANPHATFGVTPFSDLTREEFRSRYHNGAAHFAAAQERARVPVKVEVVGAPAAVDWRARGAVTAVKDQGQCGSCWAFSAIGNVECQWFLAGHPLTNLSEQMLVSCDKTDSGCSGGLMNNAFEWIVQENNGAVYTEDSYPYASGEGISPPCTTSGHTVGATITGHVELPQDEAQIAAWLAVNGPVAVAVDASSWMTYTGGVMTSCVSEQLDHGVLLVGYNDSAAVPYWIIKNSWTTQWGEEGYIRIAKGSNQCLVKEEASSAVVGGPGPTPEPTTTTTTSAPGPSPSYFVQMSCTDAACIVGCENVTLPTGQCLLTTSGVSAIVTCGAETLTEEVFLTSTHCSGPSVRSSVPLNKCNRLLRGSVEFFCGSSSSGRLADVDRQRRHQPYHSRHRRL

Compound | Potency | max response, negative = inhibition
CN(C)c1oc(-c2ccccc2Cl)nc1P(=O)(c1ccccc1)c1ccccc1 | inconclusive: 20 µM [inhibitor, single point] | 
Clc1ccc2[nH]c3c(NCCN4CCOCC4)ncnc3c2c1 | active: 14.1 µM | 
O=c1[nH]c2cc3c(cc2cc1C(c1nnnn1CC1CCCO1)N1CCCC1)OCO3 (stereo not drawn) | inconclusive: 31.6 µM [inhibitor, single point] | 
Cn1c(=N)c(S(=O)(=O)c2ccccc2)cc2c(=O)n3ccccc3nc21 | inconclusive: 8.91 µM [inhibitor, single point] | 
CC(=O)c1sc2c(c1C)c(=O)n(-c1ccc(Cl)cc1)c(=O)n2Cc1cc(=O)n2cc(Cl)ccc2n1 |  | inactive: -2.42%
CCn1c(=N)c(C(=O)NC)cc2c(=O)n3cccc(C)c3nc21 | active: 14.1 µM | 
COCCCNC(=O)c1ccc2c(c1)N=C(C)c1c(C)ccc(C)c1S2 |  | inactive: -6.59%
Cc1ccnc(N/C=C(\C#N)c2nc(-c3cccc(Br)c3)cs2)c1 | inconclusive: 28.2 µM [inhibitor, single point] | 
CC1CCCN(CCC(=O)c2ccc(Br)cc2)C1 (stereo not drawn) | inconclusive: 14.1 µM [inhibitor, partial curve] | 
O=C(CCCN1C(=O)C2CCCCN2C1=O)N1CCN(c2ccc([N+](=O)[O-])cc2)CC1 (stereo not drawn) | inconclusive: 25.1 µM [inhibitor, single point] | 
O=c1c2c3nc4ccccc4nc3n(Cc3ccccc3)c2ncn1Cc1ccco1 | inconclusive: 22.4 µM [inhibitor, partial curve] | 
CS(=O)(=O)c1cc([N+](=O)[O-])c(Sc2nc3ccccc3[nH]2)c([N+](=O)[O-])c1 | inconclusive: 25.1 µM [inhibitor, single point] | 
Cc1ccc(S(=O)(=O)Oc2ccc(N=Nc3ccc(-c4ccc(N=Nc5c(O)ccc6cc(S(=O)(=O)O)cc(S(=O)(=O)O)c56)c(C)c4)cc3C)cc2)cc1 | active: 12.6 µM | 
O=C1OC(c2ccccc2)=N/C1=C\C=C\c1ccccc1[N+](=O)[O-] | active: 12.6 µM | 
CC(C)N(C(=O)COC(=O)CNC(=O)c1ccc(Br)cc1)c1ccccc1 | active: 15.8 µM | 
C[C@H](NC(=O)c1ccccc1Cl)C(=O)OCC(=O)N1CC2(C)CC1CC(C)(C)C2 (stereo partly drawn) | inconclusive: 28.2 µM [inhibitor, single point] | 
NC(=NCCCCCCN=C(N)/N=C(\N)Nc1ccc(Cl)cc1)/N=C(\N)Nc1ccc(Cl)cc1 | inconclusive: 31.6 µM [inhibitor, partial curve] and inconclusive: 28.2 µM [inhibitor, single point] | 
COc1ccc(-c2cc(C(F)(F)F)nc(SCC(=O)Nc3cc(C)on3)n2)cc1OC | inconclusive: 28.2 µM [inhibitor, single point] | 
CC1=C(C(=O)OCc2ccccc2)C(c2ccc3ccccc3c2)NC(=O)N1CCCCCC(=O)O (stereo not drawn) | inconclusive: 28.2 µM [inhibitor, single point] | 
CCOc1c(Cl)cc(/C=N/NC(N)=S)cc1OC | active: 2.51 µM | 
CN1CCCc2cc(C#N)c(=O)[nH]c21 | inconclusive: 31.6 µM [inhibitor, single point] | 
Cc1ccc2nc(CSc3nc(C)cc(C)c3C#N)[nH]c2c1 | inconclusive: 25.1 µM [inhibitor, partial curve] | 
Cc1ccc(C(=O)NCC(=O)OCC(=O)Nc2cc(C)c(C)cc2[N+](=O)[O-])cc1 | active: 8.91 µM | 

Compound | Potency | max response, negative = inhibition
CC(C)CN1CCC2(CC1)CCN(C(=O)c1csnn1)CC2 | inconclusive: 35.5 µM [inhibitor, single point] | 
O=C(Nc1nc2ccc(Cl)cc2s1)[C@@H]1CCCN1C(=O)c1cccs1 | inconclusive: 25.1 µM [inhibitor, single point] | 
O=C(N/N=C/c1ccc(Cl)cc1)c1cc2c(s1)-c1ccccc1CC2 | inconclusive: 39.8 µM [inhibitor, single point] | 
COc1ccc2[nH]c3c(NCCCN4CCCC4=O)ncnc3c2c1 | inconclusive: 25.1 µM [inhibitor, single point] | 
CCOCCCn1c(=N)c(C(=O)NCc2cccnc2)cc2c(=O)n3ccccc3nc21 | inconclusive: 31.6 µM [inhibitor, single point] | 
Cc1ccc(NC(=O)c2sc3nc(-c4cccs4)ccc3c2N)cc1F | inconclusive: 12.6 µM [inhibitor, partial curve] | 
c1ccc2c(NC3CCCC3)nnc(NC3CCCC3)c2c1 | inconclusive: 22.4 µM [inhibitor, single point] | 
COc1ccccc1-c1nc2ccccc2nc1-c1ccccc1OC | inconclusive: 6.31 µM [inhibitor, single point] | 
C[C@H]1CCCC(=O)CCC/C=C/c2cc(O)cc(O)c2C(=O)O1 | inconclusive: 39.8 µM [inhibitor, single point] | 
O=C(NC(=S)Nc1cc(-c2nc3ccccc3[nH]2)ccc1Cl)c1ccc2c(c1)OCO2 | active: 17.8 µM | 
CC(C)Sc1nc(NCc2ccco2)c2c3c(sc2n1)COC(C)(C)C3 | inconclusive: 35.5 µM [inhibitor, single point] | 
COc1cc2cc(CN(Cc3nnnn3Cc3ccco3)C3CCCCC3)c(=O)[nH]c2cc1OC | active: 7.08 µM | 
NC(=S)N/N=C\c1c[nH]c2ccccc12 | active: 0.708 µM | 
N#Cc1ccc(Oc2nc(C#N)cc(-c3ccccc3)n2)cc1 | active: 14.1 µM | 
CC(C)C[C@H](NC(=O)C1OC1C(=O)O)C(=O)NCCCCN=C(N)N (stereo partly drawn) | active: 0.0794 µM | 
O=C(COC(=O)CNC(=O)c1cccc([N+](=O)[O-])c1)Nc1cccc(S(=O)(=O)N2CCCC2)c1 | inconclusive: 28.2 µM [inhibitor, single point] | 
O=C(CSc1ccccc1)NCc1ccco1 | inconclusive: 28.2 µM [inhibitor, single point] | 
CCN(CC)C(=S)SSC(=S)N(CC)CC | active: 14.1 µM and active: 15.8 µM | inactive: -23.2%
Cc1nnc(N/N=C/c2cccc(OCc3ccc(Cl)c(Cl)c3)c2)n1N | active: 22.4 µM | 
COCCN1CN=C(Nc2nc3ccccc3s2)NC1 | inconclusive: 28.2 µM [inhibitor, single point] | 
O=C(C1CCN(S(=O)(=O)c2cccc3nsnc23)CC1)N1CCc2ccccc2C1 |  | inactive: 2.34%
COc1ccc(Nc2oc(-c3ccccc3Cl)nc2C#N)cc1 | inconclusive: 28.2 µM [inhibitor, single point] | 
Cc1ccc(CCNC(=O)CCN2N=C(c3ccc(C)cc3)CCC2=O)cc1 |  | inactive: 2.36%

Compound | Potency | max response, negative = inhibition
Cc1nc(C)c(CCNC(=O)c2ccccc2)s1 | active: 28.2 µM | 
O=C(c1cccs1)c1no[n+]([O-])c1C(=O)c1cccs1 | inconclusive: 28.2 µM [inhibitor, single point] | 
CCCCc1cc(=O)oc2cc(OCc3cc(OC)c(OC)c(OC)c3)c(Cl)cc12 | inconclusive: 28.2 µM [inhibitor, single point] | 
CC(C)OCCCNc1ncnc2c1[nH]c1ccc(F)cc12 | inconclusive: 28.2 µM [inhibitor, single point] | 
COc1ccc(/C=N/c2c(-c3ccco3)nc3ccccn23)cc1OC | inconclusive: 39.8 µM [inhibitor, single point] | 
CC(C)C(NC(=O)c1ccco1)C(=O)NCC(c1ccco1)N1CCCCC1 (stereo not drawn) | active: 14.1 µM | 
Clc1nc2ccccc2cc1/C=N/Nc1nc2ccccc2[nH]1 | active: 28.2 µM | 
COc1ccc(OC)c(NC(=O)c2c(NCc3cccs3)sc3c2CCCCC3)c1 |  | inactive: -9.73%
Cc1ccc(C(=O)Oc2oc(-c3ccccc3)nc2C=Nc2ccc(N(C)C)cc2)cc1 | active: 28.2 µM | 
COc1ccc(C(C)=O)cc1COC(=O)CNC(=O)c1ccc(Cl)cc1 | inconclusive: 28.2 µM [inhibitor, single point] | 
O=C(CSCc1ccc(Cl)cc1)Nc1ccc(-c2nnc(-c3ccccc3)o2)cc1 | inconclusive: 22.4 µM [inhibitor, single point] | 
O=C(CNC(=O)c1ccccc1)OCc1nc2ccccc2s1 | active: 25.1 µM | 
Cc1cccc(N2CCN(S(=O)(=O)c3cc(C(=O)Nc4ccc(Oc5ccccc5)cc4)ccc3F)CC2C)c1 (stereo not drawn) |  | inactive: -0.0076%
COc1cccc(CNC(=O)CCc2c(C)c3ccc(O)c(C)c3oc2=O)c1 | inconclusive: 35.5 µM [inhibitor, single point] | 
Cc1noc(C)c1CSc1nc2ccccc2nc1NS(=O)(=O)c1ccc(Cl)cc1 | inconclusive: 17.8 µM [inhibitor, partial curve] | 
O=C(COC(=O)CNC(=O)c1sc2ccccc2c1Cl)Nc1c(Cl)cc(Cl)cc1Cl | active: 25.1 µM | 
COc1ccc(-c2ccc(-c3nnc(-c4cc(OC)ccc4OC)o3)cc2)cc1 | inconclusive: 39.8 µM [inhibitor, single point] | 
O=C(N/N=C/c1cc([N+](=O)[O-])cc([N+](=O)[O-])c1O)/C(=C\c1cccs1)NC(=O)c1ccccc1 | inconclusive: 28.2 µM [inhibitor, single point] | 
COc1cccc(-c2nn(-c3ccccc3)cc2/C=C\C(=O)c2cccs2)c1 |  | inactive: 3.21%
Cc1cc(C)c2oc(C(=O)Nc3c(C(=O)c4ccc(F)cc4)oc4ccccc34)cc(=O)c2c1 |  | inactive: -0.869%
CC[C@H](C)[C@H](NC(=O)[C@H](Cc1ccc(O)cc1)NC(=O)[C@@H](N)C(C)C)C(=O)N[C@@H](Cc1cnc[nH]1)C(=O)N1CCC[C@H]1C(=O)N[C@@H](Cc1ccccc1)C(=O)O | active: 14.1 µM | 
